# According to the supplement of paper PMC10126150:
# Values marked as one replicate rest on one cluster of the flow cell; about a third of the high ones do not repeat.
# Test system: ATP
# Experiment: switch fluorescence ratio, 500 uM ATP over buffer (Cy3 cluster intensity, sum of 5 cycles each) (fold (ratio)); higher = stronger signal-on switching upon ATP binding; sequences stand for … in TCGTCGGCAGCGTCAGATGTGTATAAGAGACAGTTTTTTTTTTTTTTTTTTTTTTTTT…TC
# Conditions: aptamer strand: ATP DNA aptamer (quencher-CACCTGGGGGAGTATTGCGGAGGAAGG + anchor), 100 nM annealed; ATP concentration: 500 uM; one replicate
# Procedure, shortened: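 Switching-strand clusters labelled with Cy3 on a modified Illumina MiSeq flow-cell were annealed to 100 nM quencher-labelled ATP aptamer, imaged in selection buffer, and re-imaged after 15 min with 500 uM ATP at 22 °C. This was done over five cycles with NaOH stripping and re-annealing in between. The fluorescence ratio is summed target-cycle over summed buffer-cycle Cy3 intensity per cluster, averaged per switch-domain sequence, excluding clusters outside 100-1000 RFU.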
# 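Also: ATP exposure 15 min at 22 °C before imaging.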
row,Sequence,switch fluorescence ratio
1,CACGACAAGA,1.58
2,TTAGACGTGC,0.97
3,CGTTGGAAAC,1.01
4,GACCTTCATG,1.03
5,GCCCAAAAAG,1.01
6,AAGTATGTGC,1.07
7,AGATTCTTTG,1.02
8,AGTTTGAGGG,1.03
9,ATGCTCATGC,1
10,GATACAACGG,1.25
11,AAATGGTGTT,1.06
12,CGGCCCCGTA,1.07
13,TGACCAGGGT,1.01
14,GTTCAAACGT,1.03
15,CGCCAGGGTT,1.29
16,TAGTAGACGG,0.985
17,ATTCCTAATG,1.04
18,ATAGCTGGCT,1.09
19,AAGCACATAA,1.54
20,TCTAGGTAGT,1.05
21,ATTCGGATTG,0.965
22,GGCTCTGATC,1
23,GAACTTGAGA,1.05
24,GTTGTCTAAA,0.979
25,TTAGAACGAC,1.07
26,CTGAAGGCTA,1.27

row,Sequence,switch fluorescence ratio
1,TAACCCAGAC,1.37
2,ATGAACGGGT,0.973
3,CTGTTGAATG,0.962
4,ATTGTTAAAC,1.01
5,CGACATGGCA,1.06
6,GGTTCTAGCC,0.966
7,CTTACATAGG,1.03
8,ATTGGAAAGC,1.03
9,TTTGGAACGA,0.948
10,GTATATTGAG,1.02
11,GATAAACGAG,0.977
12,CCACAATATA,1.78
13,TATTCTCGAT,1.02
14,TTCGCAACAC,2.24
15,CCTGAATCGT,1.01
16,CAGCCTTAGG,1
17,ATACCAGATC,1.07
18,CGCGAGGCTA,1.28
19,GGATTCAATG,0.989
20,GGGTGACGCT,1.03
21,AAACCCAGA,1.02
22,AATTTGAAGC,0.988
23,ACCAAGAGTG,0.994
24,ACTGGGTCGG,0.994
25,ACGCTATTTA,1.12
26,TAAGCTTCTG,1.02

row,Sequence,switch fluorescence ratio
1,CGCTCAGATA,1.02
2,CATGGTTCTT,1
3,CTGGGCGCGT,1.01
4,TTCATAGTCA,0.981
5,TCACCCGAAC,1.22
6,TCAGTTTCCT,1.04
7,TAGGATCTCT,1.01
8,GAATTCCGGG,1.02
9,CCACAGGTTA,1.6
10,ATGTCTGTGG,1.03
11,TCTGAAGATA,0.982
12,GAATCGGCTA,1.01
13,CATCTAACAC,1.08
14,GAGCTGGTGT,1.01
15,GGCCCCTTGT,1.04
16,GAACTGCCCG,1.03
17,TATACAAGTG,1.02
18,AAGATGAGTT,0.971
19,CCTCACCGAG,1.13
20,CGGCTGGGTG,1.05
21,AGGCTAGTTT,0.959
22,AAAGGTATCG,0.99
23,TCGATCCCTC,0.98
24,CAGGTTCATA,0.999
25,GAGGCGACAG,1.03
26,TCAGGTTCAG,1.01

row,Sequence,switch fluorescence ratio
1,GAAGTGTTAT,1.01
2,TTGAGTACCT,1.1
3,CCTGTTATTA,0.977
4,GGTTCCATAT,1.04
5,AACAACATTA,1.08
6,GCGCGATTAG,1.09
7,GCTAAATTAG,0.998
8,GAACGTCGTG,0.969
9,AACAAACTCG,1.29
10,GTTTTAGGC,0.911
11,ATTGAATCTT,1.01
12,AAAGTACGCT,1.06
13,GGCGTCATGC,0.979
14,CCCGATGCGG,2.24
15,TACTGGTTAA,1.2
16,TTAGCTGAAT,0.973
17,CCTGCTGAAA,1.08
18,GGGCCGGTCA,0.971
19,TTATGGCGTT,1.01
20,CCGTGCCCGG,1.12
21,TTAATCCACC,1.22
22,CATGCTCGGG,1.03
23,TAAGCCGCTC,1.04
24,CTGAGTGC,1.05
25,GCTTGGAATT,1.03
26,GTGATCACTA,0.999

row,Sequence,switch fluorescence ratio
1,CGAGGTGTTT,1.03
2,TGCGTAAGGT,1
3,TCACGAGTTG,1
4,AGCTGGTGTG,0.97
5,CAAGTGAGTG,0.979
6,ACTTACCGAT,1.15
7,AATGCCGTTC,0.996
8,CTTGCAGAAT,0.965
9,CATCTATAAT,0.995
10,TTCAGGTCTT,0.934
11,GACTACACGT,1.47
12,AAAGTAATTT,0.996
13,TTTCCTTGGT,1.01
14,CAATGGCTTG,0.992
15,GGTCCTGGTG,1.49
16,TACGGTGTA,0.99
17,TGAGCTGGT,0.99
18,GGGGGATGAC,1.03
19,CGGAGCCTAA,1.24
20,GTGTACTTCC,1.55
21,AAGTGCGTAA,0.955
22,CTAGTGCGGG,0.988
23,CGCGGCCCGA,0.989
24,AAGGTCCCAC,0.982
25,TAAAGGCATA,0.988
26,TCCTTTCAGG,0.988

row,Sequence,switch fluorescence ratio
1,GGCTGGACGA,0.977
2,CACTCTATCG,0.979
3,ATTGTTGGCG,1.06
4,GGATCCGGTC,0.976
5,CGGCTATCCG,0.952
6,CGACCGGGAG,1.02
7,CCTGTTGTCC,1.04
8,TACGTATCGG,0.989
9,GTTATTAGAA,0.942
10,ACATATGATG,0.951
11,CCATTGCCCC,1.02
12,CAGGATAGCG,0.997
13,GCTTTGCGCA,1.01
14,AACAAATTCC,1.05
15,GGTTTTGAGT,0.975
16,GCGGAGCGAT,1.8
17,ATGTACGGT,1.04
18,CACAGTGCC,1.03
19,TCAGCGGTGG,1.04
20,CTAGTTCAAA,0.962
21,CGTTTCTCCC,1.54
22,TATATTTTAC,1.04
23,CCATGGGAAT,0.935
